Measurements reported in publication PMC12820563, “FoxP3 forms a head-to-head dimer in vivo and stabilizes its multimerization on adjacent microsatellites”.
This is one part of the list.

Target: T1, MBP-FoxP1dN (Mus musculus, UniProt P58462 326-579)
T1 sequence: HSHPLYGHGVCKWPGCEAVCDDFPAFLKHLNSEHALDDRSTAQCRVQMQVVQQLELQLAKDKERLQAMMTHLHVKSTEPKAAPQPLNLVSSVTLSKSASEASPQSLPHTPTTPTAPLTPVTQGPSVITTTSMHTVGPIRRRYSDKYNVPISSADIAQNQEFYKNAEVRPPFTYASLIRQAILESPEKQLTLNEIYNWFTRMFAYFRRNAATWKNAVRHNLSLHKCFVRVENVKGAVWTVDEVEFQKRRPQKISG
Assay: PD-seq (MBP pull-down with sequencing); 20 mM Tris-HCl pH 7.5, 100 mM NaCl, 1.5 mM MgCl2, 0.4 uM protein, 0.1 uM dsDNA library, 30 min, room temperature, amylose pull-down; high values mean tight binding
Conditions: protein: recombinant; tags: His6-MBP; chain copies: 2; dsDNA, one strand shown
Procedure, shortened: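 The N-terminus-lacking fragment of mouse FoxP3 or FoxP1 carried a His6-MBP tag and was expressed in E. coli. At 0.4 µM it was incubated with 0.1 µM Klenow-filled degenerate double-stranded DNA library for 30 min at room temperature in Tris pH 7.5 buffer with NaCl and MgCl2, and complexes were caught on amylose resin, washed three times, released with proteinase K, PCR-barcoded and Illumina-sequenced. Binding is reads-per-million enrichment of pull-down over input with replicates pooled.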

Sequence	binding signal
GATGATTGTTCTCCCAGCTGATGAATTCCCATTGTCGAGTAAACAAATTTTCCTAATCTTTCTGTTCAAGCGCCATCTAC	0.951 RPM ratio (pull-down/input)
GATGATTGTTCTCCCAGCTGATGAATTGCTAAGATCGAGTAAACAAATTTTCCTAATCTTTCTGTTCAAGCGCCATCTAC	1.09 RPM ratio (pull-down/input)
GATGATTGTTCTCCCAGCTGATGAATTGACAAGATCGAGTAAACAAATTTTCCTAATCTTTCTGTTCAAGCGCCATCTAC	1.27 RPM ratio (pull-down/input)
GATGATTGTTCTCCCAGCTGATGAATTAACCGGCTCGAGTAAACAAATTTTCCTAATCTTTCTGTTCAAGCGCCATCTAC	0.723 RPM ratio (pull-down/input)
GATGATTGTTCTCCCAGCTGATGAATTATAGATGTCGAGTAAACAAATTTTCCTAATCTTTCTGTTCAAGCGCCATCTAC	1.09 RPM ratio (pull-down/input)
GATGATTGTTCTCCCAGCTGATGAATTCGCGTGCTCGAGTAAACAAATTTTCCTAATCTTTCTGTTCAAGCGCCATCTAC	0.874 RPM ratio (pull-down/input)
GATGATTGTTCTCCCAGCTGATGAATTGGGCACCTCGAGTAAACAAATTTTCCTAATCTTTCTGTTCAAGCGCCATCTAC	0.85 RPM ratio (pull-down/input)
GATGATTGTTCTCCCAGCTGATGAATTAATCCGCTCGAGTAAACAAATTTTCCTAATCTTTCTGTTCAAGCGCCATCTAC	0.855 RPM ratio (pull-down/input)
GATGATTGTTCTCCCAGCTGATGAATTTCTGAAATCGAGTAAACAAATTTTCCTAATCTTTCTGTTCAAGCGCCATCTAC	0.947 RPM ratio (pull-down/input)
GATGATTGTTCTCCCAGCTGATGAATTTCCTCGGTCGAGTAAACAAATTTTCCTAATCTTTCTGTTCAAGCGCCATCTAC	0.78 RPM ratio (pull-down/input)
GATGATTGTTCTCCCAGCTGATGAATTAACCCATTCGAGTAAACAAATTTTCCTAATCTTTCTGTTCAAGCGCCATCTAC	0.909 RPM ratio (pull-down/input)
GATGATTGTTCTCCCAGCTGATGAATTATGTACATCGAGTAAACAAATTTTCCTAATCTTTCTGTTCAAGCGCCATCTAC	1.54 RPM ratio (pull-down/input)
GATGATTGTTCTCCCAGCTGATGAATTGCACGGTTCGAGTAAACAAATTTTCCTAATCTTTCTGTTCAAGCGCCATCTAC	1.03 RPM ratio (pull-down/input)
GATGATTGTTCTCCCAGCTGATGAATTTATTCATTCGAGTAAACAAATTTTCCTAATCTTTCTGTTCAAGCGCCATCTAC	1.08 RPM ratio (pull-down/input)
GATGATTGTTCTCCCAGCTGATGAATTCATAACATCGAGTAAACAAATTTTCCTAATCTTTCTGTTCAAGCGCCATCTAC	1.58 RPM ratio (pull-down/input)
GATGATTGTTCTCCCAGCTGATGAATTCATGCATTCGAGTAAACAAATTTTCCTAATCTTTCTGTTCAAGCGCCATCTAC	1.29 RPM ratio (pull-down/input)
GATGATTGTTCTCCCAGCTGATGAATTGTTGGACTCGAGTAAACAAATTTTCCTAATCTTTCTGTTCAAGCGCCATCTAC	1.03 RPM ratio (pull-down/input)
GATGATTGTTCTCCCAGCTGATGAATTTCGCATTTCGAGTAAACAAATTTTCCTAATCTTTCTGTTCAAGCGCCATCTAC	1.28 RPM ratio (pull-down/input)
GATGATTGTTCTCCCAGCTGATGAATTATTCTTGTCGAGTAAACAAATTTTCCTAATCTTTCTGTTCAAGCGCCATCTAC	1.16 RPM ratio (pull-down/input)
GATGATTGTTCTCCCAGCTGATGAATTCGTGCCGTCGAGTAAACAAATTTTCCTAATCTTTCTGTTCAAGCGCCATCTAC	0.843 RPM ratio (pull-down/input)

Sequence	binding signal
GATGATTGTTCTCCCAGCTGATGAATTGGTTACTTCGAGTAAACAAATTTTCCTAATCTTTCTGTTCAAGCGCCATCTAC	1.03 RPM ratio (pull-down/input)
GATGATTGTTCTCCCAGCTGATGAATTAGCATAGTCGAGTAAACAAATTTTCCTAATCTTTCTGTTCAAGCGCCATCTAC	0.88 RPM ratio (pull-down/input)
GATGATTGTTCTCCCAGCTGATGAATTGGAGAAGTCGAGTAAACAAATTTTCCTAATCTTTCTGTTCAAGCGCCATCTAC	0.778 RPM ratio (pull-down/input)
GATGATTGTTCTCCCAGCTGATGAATTTACTGGATCGAGTAAACAAATTTTCCTAATCTTTCTGTTCAAGCGCCATCTAC	1.02 RPM ratio (pull-down/input)
GATGATTGTTCTCCCAGCTGATGAATTGAGACGTTCGAGTAAACAAATTTTCCTAATCTTTCTGTTCAAGCGCCATCTAC	0.83 RPM ratio (pull-down/input)
GATGATTGTTCTCCCAGCTGATGAATTGCCTATCTCGAGTAAACAAATTTTCCTAATCTTTCTGTTCAAGCGCCATCTAC	0.914 RPM ratio (pull-down/input)
GATGATTGTTCTCCCAGCTGATGAATTACTCGACTCGAGTAAACAAATTTTCCTAATCTTTCTGTTCAAGCGCCATCTAC	0.947 RPM ratio (pull-down/input)
GATGATTGTTCTCCCAGCTGATGAATTTTGTCCTTCGAGTAAACAAATTTTCCTAATCTTTCTGTTCAAGCGCCATCTAC	1 RPM ratio (pull-down/input)
GATGATTGTTCTCCCAGCTGATGAATTTTAGAAATCGAGTAAACAAATTTTCCTAATCTTTCTGTTCAAGCGCCATCTAC	1.01 RPM ratio (pull-down/input)
GATGATTGTTCTCCCAGCTGATGAATTCGAGTTGTCGAGTAAACAAATTTTCCTAATCTTTCTGTTCAAGCGCCATCTAC	1.15 RPM ratio (pull-down/input)
GATGATTGTTCTCCCAGCTGATGAATTTAGAAGCTCGAGTAAACAAATTTTCCTAATCTTTCTGTTCAAGCGCCATCTAC	0.868 RPM ratio (pull-down/input)
GATGATTGTTCTCCCAGCTGATGAATTCATTGGATCGAGTAAACAAATTTTCCTAATCTTTCTGTTCAAGCGCCATCTAC	0.843 RPM ratio (pull-down/input)
GATGATTGTTCTCCCAGCTGATGAATTGGCTATCTCGAGTAAACAAATTTTCCTAATCTTTCTGTTCAAGCGCCATCTAC	0.86 RPM ratio (pull-down/input)
GATGATTGTTCTCCCAGCTGATGAATTACAAACCTCGAGTAAACAAATTTTCCTAATCTTTCTGTTCAAGCGCCATCTAC	1.27 RPM ratio (pull-down/input)
GATGATTGTTCTCCCAGCTGATGAATTAGCCATGTCGAGTAAACAAATTTTCCTAATCTTTCTGTTCAAGCGCCATCTAC	0.837 RPM ratio (pull-down/input)
GATGATTGTTCTCCCAGCTGATGAATTTCCGTTATCGAGTAAACAAATTTTCCTAATCTTTCTGTTCAAGCGCCATCTAC	0.93 RPM ratio (pull-down/input)
GATGATTGTTCTCCCAGCTGATGAATTCGATAGATCGAGTAAACAAATTTTCCTAATCTTTCTGTTCAAGCGCCATCTAC	0.844 RPM ratio (pull-down/input)
GATGATTGTTCTCCCAGCTGATGAATTGCTGGATTCGAGTAAACAAATTTTCCTAATCTTTCTGTTCAAGCGCCATCTAC	0.987 RPM ratio (pull-down/input)
GATGATTGTTCTCCCAGCTGATGAATTCGCTGGCTCGAGTAAACAAATTTTCCTAATCTTTCTGTTCAAGCGCCATCTAC	0.845 RPM ratio (pull-down/input)
GATGATTGTTCTCCCAGCTGATGAATTACAGCAATCGAGTAAACAAATTTTCCTAATCTTTCTGTTCAAGCGCCATCTAC	1.28 RPM ratio (pull-down/input)
